Measurements: ChEMBL document CHEMBL4888484, “Replenishing the malaria drug discovery pipeline: Screening and hit evaluation of the MMV Hit Generation Library 1 (HGL1) against asexual blood stage Plasmodium falciparum ,using a nano luciferase reporter read-out” (2022)
Out of some 150,000 compounds screened, about 540 (0.36%) showed an effect of 50% or more. This is one part of the list.

system: Plasmodium falciparum; assay: Primary screen in NF54 nanoGlo assay, in single point, at 2uM, 72h; a lower Z score goes with more inhibition; type: functional, Erythrocyte; details: timepoint 72 hour

| Compound | % Inhibition [%] | Z score |
| --- | --- | --- |
| CCc1nn(C)c(CC)c1CC(=O)Nc1c(OC)ncnc1N(C)C | 3 | -0.57 |
| COc1cnccc1CNC(=O)[C@]1(O)CCc2cc(Br)ccc2C1 | -5 | 0.75 |
| Cc1ccc(O[C@H]2COCC[C@H]2NC(=O)c2sccc2C)cn1 | 9 | -1.24 |
| CCN(C[C@H]1CCOC1)C(=O)c1ccc(-n2cnnn2)cc1 | -13 | 2.08 |
| CCC(C(=O)Nc1ccc2c(c1)CN(Cc1cccc(OC)c1)C(=O)C(C)O2)c1ccccc1 (stereo not given) | -4 | 0.54 |
| COc1ccc(CNC(=O)c2cc(-c3ccc(C)cc3)nc3n[nH]c(-c4ccc(OC)cc4)c23)cc1 | -24 | 2.24 |
| O=C(Cc1ccc(O)cc1)NCc1ccccc1CN1CC[C@H](O)C1 | -8 | 0.96 |
| CC(C)(Cc1ccc(Cl)cc1Cl)NC(=O)c1cccc(=O)[nH]1 | -20 | 1.98 |
| COc1ccc(C(=O)N2CCC3(CC2)C[C@@H](CNS(C)(=O)=O)CCO3)cn1 | -3 | 0.47 |
| C[C@@H](C1CC1)N(C)Cc1nc(-c2cccs2)no1 | -4 | 0.36 |
| CN(C)C(=O)c1ccc(CNS(=O)(=O)N2CCCC2)o1 | -4 | 0.77 |
| c1ccc(C2OCCC2NCc2ccsc2)cc1 (stereo not given) | -7 | 0.94 |
| Cn1ccc(CNC(=O)N2CCCC3(CCCCC3)C2)n1 | -14 | 1.41 |
| Cc1cc(C2CCC2)nc(N2CCN[C@H](C(=O)O)C2)n1 | 0 | 0.01 |
| Cn1cc(N)c(C(=O)NC[C@H]2CCCO2)n1 | 32 | -3.64 |
| CCCc1nnc(NC(=O)C2=NN(c3ccccc3)[C@H](C(N)=O)C2)s1 | 7 | -0.86 |
| Cn1ncc2c(NCCCO)nc(N3CCCCC3)nc21 | -2 | 0.23 |
| COCC(C)(C)C(=O)N1CCC[C@H](c2ccncc2)CC1 | -7 | 1.4 |
| O=C(C[C@@]1(O)C(=O)Nc2c(Cl)cccc21)c1ccccn1 | 1 | -0.1 |
| COc1ccc(CC(=O)N2CCC3(CC2)NC(=O)N(C)C3=O)cc1 | -4 | 0.85 |
| CN(C)CC(=O)NC(C)(C)c1cccc(Cl)c1F | 2 | -0.23 |
| CCN1C(=O)c2c(C(=O)Nc3ccc(C)cc3)ncn2C[C@@]1(C)C(=O)NCc1ccc(OC)cc1 | -12 | 1.94 |
| Cc1noc(-c2cn(C3CCN(C(=O)c4cccc(C#N)c4)CC3)nn2)n1 | -23 | 2.68 |
| Cc1ccc(OCC(N)=O)c(-c2ccc(C(=O)NC[C@H]3CCN(C)C3)cc2)c1 | -9 | 1.32 |
| Cc1cc(C)nc(N[C@H]2CCCN(Cc3cccc(O)c3)C2)n1 | 12 | -1.96 |
| CC1CCCN(C(=O)c2cccc3c2OCO3)C1CN (stereo not given) | 9 | -1.73 |
| CCN(CC)CC(=O)NC1(Cc2ccc(O)cc2)CCCCC1 | -2 | 0.31 |
| Cc1cc(-c2nc3ccccc3s2)ccc1NC(=O)Nc1cccc(Cl)c1 | -5 | 0.71 |

| Compound | % Inhibition [%] | Z score |
| --- | --- | --- |
| COc1ccc(N2CCN(c3nc4ccccc4c(=O)n3-c3cccc(C)c3C)CC2)cc1 | 5 | -0.73 |
| Cc1ccc(F)c2oc(C(=O)NC[C@H]3CC(=O)N(C)[C@@H]3c3cnn(C)c3C)cc12 | 6 | -1.14 |
| Cc1nn(C[C@H]2CCOC2)c(N)c1C#N | 8 | -1.52 |
| CC(C)(C)c1cc(C(F)(F)F)nc(NC(=O)NS(=O)(=O)N(Cc2ccccc2)c2ccccc2)n1 | -4 | 0.69 |
| Cc1c(-c2c(-c3ccccc3)ncn2CC(N)=O)c2ccccc2n1CC(=O)O | 2 | -0.29 |
| CCOc1cncc(CNc2cc(Br)ccc2CO)c1 | 17 | -1.98 |
| CCCn1cnc2cc(-c3noc(CNC(=O)c4cccs4)n3)ccc21 | 8 | -1.09 |
| Cc1ccc(NC(=O)c2c(C)noc2C2CC2)c(C)c1O | -2 | 0.19 |
| Cc1csc(N2C(=O)[C@H](C)N(C3CC3)C2=O)n1 | 0 | 0.03 |
| O=C(CC(F)(F)F)Nc1ccccc1F | -6 | 0.62 |
| COc1cc2c(cc1OC)CN(C(=O)c1nc(N3CCOCC3)ncc1Cl)CC2 | 3 | -0.44 |
| Cc1cnn([C@@H](C)C2CC2)c1NC(=O)NCc1sc(C(C)C)nc1C | -2 | 0.3 |
| C[C@H]1C(=O)NCCN1Cc1nnc(C(C)(C)C)o1 | 1 | -0.21 |
| CN(Cc1cnnn1Cc1ccccc1)CC1(O)CCOCC1 | -7 | 0.94 |
| Cc1nn(-c2ccc3nncn3n2)c2c1[C@@H](c1ccc(F)cc1)CC(O)=N2 | -6 | 0.77 |
| Cc1cn2nc(N[C@H]3CCN(C(=O)c4cc(F)c[nH]4)C3)ccc2n1 | -4 | 0.57 |
| OCC[C@H]1CCCCN1c1ccc(CNc2ncccn2)cn1 | 14 | -1.53 |
| O=C(c1ccco1)n1nc(-c2ccco2)oc1=S | -10 | 1.4 |
| c1ccc(CCc2cn(CCN3CCNCC3)nn2)cc1 | -23 | 2.01 |
| O=S(=O)([C@H]1CCN(c2ccnc3c(F)cccc23)C1)N1CCCC1 | -1 | 0.07 |
| CC(=O)OC(COC1C[C@@H]2CC[C@@]1(C)C2(C)C)C[N+]1(C)CCCCC1 (stereo not given in full) | -3 | 0.33 |
| CCn1nccc1NC(=O)c1nc2ccc(F)cc2[nH]1 | 5 | -0.71 |
| COC(=O)c1cc(CN2CCC[C@H](c3nc(C)cs3)C2)c[nH]1 | 7 | -0.9 |
| Cc1c(Cl)cccc1C(=O)NCC1CCCC12NC(=O)NC2=O (stereo not given) | -3 | 0.28 |
| CC(C)c1nnc(NS(=O)(=O)Cc2cccc(C(F)(F)F)c2)o1 | 8 | -0.78 |
| Cc1ccc(C(=O)NCC(=O)N2CCCC2)cn1 | -9 | 1.73 |
| Nc1ccc(Oc2nc(Oc3ccc(N)cc3)c(F)c(Oc3ccc(N)cc3)c2F)cc1 | -3 | 0.28 |
